Among all 310,000 compounds or so, about 2,200 (0.71%) showed an effect of 50% or more. Effects have a minus sign here. This is one part of the list.
Molecular target: human ether-à-go-go-related gene (hERG) potassium channel (human, UniProt Q12809)
Experiment: primary screen, population patch clamp on CHO cells stably expressing hERG

human ether-à-go-go-related gene (hERG) potassium channel, sequence (Q12809 whole entry, looked up): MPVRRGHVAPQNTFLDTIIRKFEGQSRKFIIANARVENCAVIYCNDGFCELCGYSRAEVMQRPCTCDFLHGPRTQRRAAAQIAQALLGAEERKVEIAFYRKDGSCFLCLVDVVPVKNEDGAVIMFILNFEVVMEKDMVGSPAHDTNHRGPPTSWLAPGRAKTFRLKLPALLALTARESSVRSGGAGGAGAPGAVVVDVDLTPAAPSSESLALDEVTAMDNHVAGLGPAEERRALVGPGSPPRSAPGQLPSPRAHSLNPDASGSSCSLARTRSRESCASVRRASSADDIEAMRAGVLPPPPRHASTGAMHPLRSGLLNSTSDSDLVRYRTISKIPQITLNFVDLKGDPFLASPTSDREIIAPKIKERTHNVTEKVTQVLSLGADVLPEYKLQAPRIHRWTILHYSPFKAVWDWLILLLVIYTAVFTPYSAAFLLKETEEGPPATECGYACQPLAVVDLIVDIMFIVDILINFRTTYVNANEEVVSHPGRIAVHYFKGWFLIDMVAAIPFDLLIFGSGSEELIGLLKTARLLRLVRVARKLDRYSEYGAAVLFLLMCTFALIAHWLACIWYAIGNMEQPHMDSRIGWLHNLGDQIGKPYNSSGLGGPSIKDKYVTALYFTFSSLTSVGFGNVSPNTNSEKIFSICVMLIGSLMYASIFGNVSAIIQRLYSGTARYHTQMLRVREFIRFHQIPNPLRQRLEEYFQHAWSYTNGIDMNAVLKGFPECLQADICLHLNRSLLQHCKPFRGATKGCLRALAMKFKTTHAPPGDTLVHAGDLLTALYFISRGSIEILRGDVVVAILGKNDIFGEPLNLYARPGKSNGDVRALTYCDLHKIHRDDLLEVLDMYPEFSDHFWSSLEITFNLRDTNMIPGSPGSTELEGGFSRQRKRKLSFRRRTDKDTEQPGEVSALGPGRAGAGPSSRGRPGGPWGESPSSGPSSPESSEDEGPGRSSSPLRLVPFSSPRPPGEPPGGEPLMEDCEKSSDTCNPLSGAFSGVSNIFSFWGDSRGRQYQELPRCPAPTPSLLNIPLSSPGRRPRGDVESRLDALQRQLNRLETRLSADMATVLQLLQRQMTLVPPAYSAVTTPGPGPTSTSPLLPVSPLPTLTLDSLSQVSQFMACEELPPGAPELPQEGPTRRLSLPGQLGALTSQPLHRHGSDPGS

Structure (SMILES) | hERG current change (%, negative = inhibition) at 1uM
CCc1ccccc1NC(=O)c1ccccc1N1C(=O)C2C3C=CC(C3)C2C1=O (stereo not shown) | 11.3%
Cc1cccc(N2C(=O)C3C(c4ccccc4)OC4(C(=O)c5ccccc5C4=O)C3C2=O)c1 (stereo not shown) | 14.1%
COC(=O)C1=C(N)Oc2cc(C)n(Cc3cccnc3)c(=O)c2C1c1ccccc1OC (stereo not shown) | 1.51%
Cc1cc(C)cc(Oc2coc3cc(OC(=O)c4cccs4)ccc3c2=O)c1 | 1.32%
Cc1ccc(C(=O)N2CCN(c3ccc([N+](=O)[O-])c(NCc4cccnc4)c3)CC2)cc1 | -4.13%
CC1(C(=O)N2CC3(CC(c4cccc([N+](=O)[O-])c4)=NO3)C[C@H]2C(=O)NCC(N)=O)CC1 (stereo partly shown) | 0.396%
Cc1ccc(NS(=O)(=O)c2ccc(NC(=O)C3CC3)cc2)c(C)c1 | 8.67%
C/C(=N\Nc1nc(C(C)(C)C)cs1)c1ccc(O)cc1 | 8.06%
O=C(CC1CCCCC1)NCCCN1CCOCC1 | 12.9%
Cc1ccc(S(=O)(=O)NCCC(=O)N2CCOCC2)cc1C | -6.51%
COc1cc(CNCCNCC(C)O)ccc1OCc1ccc(Cl)nc1 (stereo not shown) | -2.27%
Cc1ccc(NC(=O)CCNS(=O)(=O)c2ccc3c(c2)oc(=O)n3C)c(C)c1 | 12.2%
COc1ccc(/C=C2\SC(=S)N(CCCC(=O)N3CCOCC3)C2=O)cc1OC | 11.4%
Cc1ccc2cc(/C=C(\C#N)C(N)=O)c(N3CCCCC3)nc2c1 | 7.19%
CCN(CC)S(=O)(=O)c1ccc(C(=O)Oc2cc(C)[nH]c(=O)c2[N+](=O)[O-])cc1 | 1.39%
Cc1ccc(CNC(=O)Cc2noc3ccccc23)cc1 | 11.4%
O=C(Nc1ccc2c(c1)C(=O)N(CC1CCCO1)C2=O)c1cccc(Br)c1 (stereo not shown) | -15.2%
CCN(CC)c1ccc(/C=N/NS(=O)(=O)c2ccc(CNC(C)=O)cc2)cc1 | 17.8%
CCOc1ccc(NC(=O)CCSc2nnc(C)s2)cc1 | -6.56%
COc1cccc(-c2nc3ccccc3s2)c1O | 9.86%
CCOC(=O)Cc1cc(=O)n2[nH]c(-c3ccc(Cl)cc3)cc2n1 | -0.958%
O=C(Nc1ccc(N2CCN(C(=O)c3ccco3)CC2)cc1)c1ccc(Br)cc1 | 13.1%

Structure (SMILES) | hERG current change (%, negative = inhibition) at 1uM
COC(=O)c1cccc(S(=O)(=O)N2CCC(C)CC2)c1 | 8.09%
CCCNC(=O)Cn1c2ccccc2c2nc(=O)cc(C)n21 | 11.7%
O=C(Nc1ccc(N2CCCC2)c(Cl)c1)c1cccc(-c2cc3ccccc3oc2=O)c1 | 6.86%
Fc1cccc(CSc2nnc3c(n2)[nH]c2ccccc23)c1 | 12%
CCCc1cc(=O)[nH]c(SCC(=O)N2CCN(S(=O)(=O)c3ccccc3)CC2)n1 | 11.9%
O=C(CSc1nc2ccccc2c(=O)[nH]1)Nc1ccc(S(=O)(=O)N2CCCC2)cc1 | 7.16%
CCn1c(-c2ccco2)nc2ccccc21 | 4.95%
O=C(COC(=O)c1ccc(S(=O)(=O)NCc2ccco2)cc1)Nc1ncc(Cl)cc1Cl | 11.8%
O=C(NCc1ccc(F)cc1)c1cc2ccccn2n1 | 11.3%
O=C(CC1C(=O)NCCN1CC1CCCCC1)NCc1ccc(Cl)cc1 (stereo not shown) | 6.4%
COCCn1nnnc1C(c1ccc(O)c(OC)c1)N1CCc2ccccc2C1.Cl (stereo not shown) | 15.8%
O=C(COC(=O)[C@@H]1CC(O)CN1S(=O)(=O)c1ccccc1[N+](=O)[O-])c1ccccc1 (stereo partly shown) | 3.42%
COC(=O)CNC(=O)C1CCN(C(=O)OCc2ccccc2)CC1 | 9.41%
COc1ccc(OC)c2c(N3CC(C)OC(C)C3)cc(C(F)(F)F)nc12 (stereo not shown) | -1.92%
O=C(Nc1nccs1)c1cncc(Br)c1 | -0.0574%
COc1cc2c(OC)cccc2cc1C(=O)O | 10.3%
O=C(CC(c1ccc(F)cc1)c1ccco1)Nc1nccs1 (stereo not shown) | 12.5%
CCOC(=O)Cn1nc(C)c(NC(=O)COc2ccc(OC)cc2)c1C | 4.48%
Cc1ccc(N(C(C)C(=O)Nc2c(C)n(C)n(-c3ccccc3)c2=O)S(C)(=O)=O)cc1C (stereo not shown) | 12.6%
c1ccc2c(c1)OCc1cn[nH]c1-2 | 13.6%
CC(=O)c1cccc(CN2CCN(CC=C(C)C)C(CCO)C2)c1 (stereo not shown) | 6.3%

— publication PMC4336329 (PLoS ONE, 2015)
